Results taken from PubChem BioAssay AID686979 (National Center for Advancing Translational Sciences (NCATS), 2013).
“And” between values parts separate entries of the source, which are not always exact repeats. Equal entries are not always repeated. Screen size: about 420,000 compounds; about 50,000 (12%) were called active. Inconclusive means that the source gave no clear call. Such entries were picked first, then a sample of the others. Calls follow the shape of the dose curve; as a rule, active = well fitted inhibition curve with a large enough effect; inconclusive = small, poorly fitted or top-dose-only effect; inactive = flat fitted curve, though single readings scatter. No potency is given beside an inconclusive call; the fits are too rough.
% is scaled to controls: 0 for no effect and ±100 for the full control effect; potency is read from the fitted curve at half-maximal effect; tags tell the direction and shape of the fitted curve.

Test: qHTS for Inhibitors of human tyrosyl-DNA phosphodiesterase 1 (TDP1): qHTS in cells in presence of CPT; also: nearly all actives have a fitted effect of over 55% in size
Conditions: chicken DT40 Tdp1-/-;hTDP1 cells + 20 nM CPT, ATP luminescence, 48 h; activity change, negative = growth inhibition: at 46.2 µM (top of the series)
How it was run: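 Cell growth measured by CellTiter-Glo luminescence after a minimum 48 h, 37 C compound exposure with 20 nM CPT in Tdp1-knockout DT40 cells stably expressing hTDP1, seeded 400/well; qHTS titration format.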
With `CCOc1ccccc1N1CCN(C(=O)C2=CC=CN3CCS(=O)(=O)N=C23)CC1` the “activity change, negative = growth inhibition” value was inactive: -4.03%. In the case of `COc1ccc(C2=Nn3c(nnc3-c3ccc(OC)cc3)SC2)cc1`, the Potency was active: 1.84 µM. In the case of `COc1ccccc1C(=O)NC(=O)COC(=O)c1ccc([N+](=O)[O-])cc1`, the Potency was inconclusive [inhibitor, full curve, poor fit]. In the case of `Cc1ccc(CNCc2cc3c(C(C)(C)C)nn(-c4ccccc4)c3[nH]c2=O)cc1`, the Potency was inconclusive [inhibitor, single point]. With `Cc1ccc(C(C)C)c(OCc2nnc3n2CCCCC3)c1` the Potency was inconclusive [inhibitor, single point]. For `Cc1cc2ccccc2n1CCNC(=O)c1ccc(S(=O)(=O)N2CCOCC2)cc1`, the Potency was inconclusive [inhibitor, single point]. In the case of `CCOC(=O)c1nn(-c2ccccc2F)c(-c2ccccc2)c1C(=O)c1ccccc1`, the Potency was inconclusive [inhibitor, single point]. For `Cc1ccc(CNc2ncnc3sc(C(=O)N4CCCC(C(N)=O)C4)c(C)c23)o1` (stereo unspecified), the activity change, negative = growth inhibition was inactive: -11.7% [at 9.04 µM]. In the case of `COCCCNC(=O)c1ccc2c(c1)ncn2-c1ccc(C)cc1C`, the Potency was inconclusive [inhibitor, single point]. In the case of `C/C(CCc1oc2ccccc2c1-c1ccc(C)o1)=N/O`, the Potency was inconclusive [inhibitor, single point]. In the case of `COc1ccc(CCNC(=O)CSc2c[nH]c3ccccc23)cc1OC`, the Potency was inconclusive [inhibitor, single point]. For `COc1ccccc1NC(=O)c1cc(S(=O)(=O)NC2CCCC2)ccc1F`, the Potency was inconclusive [inhibitor, single point]. In the case of `CC1(C(=O)Nc2cccc(C#N)c2)CCN1C(=O)CCc1ccccc1` (stereo unspecified), the Potency was inconclusive [inhibitor, single point]. For `CCOc1ccc(-c2noc(-c3cccnc3)n2)cc1OC`, the Potency was inconclusive [inhibitor, single point]. With `CCc1sc(C(=O)Nc2ccc(N3CCOCC3)cc2)cc1C` the Potency was active: 20.6 µM. For `CC#CCN(Cc1ccco1)C(=O)C1CCC(=O)N(Cc2ccccc2F)C1` (stereo unspecified), the Potency was inconclusive [inhibitor, single point]. With `CC(C)(C)n1nnnc1C(c1cccs1)N(Cc1ccccc1)Cc1cccnc1` (stereo unspecified) the Potency was active: 20.6 µM. In the case of `O=c1c2cnn(-c3ccccc3)c2nc(-c2cccs2)n1-c1cccc(Cl)c1`, the Potency was active: 14.6 µM. In the case of `COc1ccc(C2N3CC4(C)CN2CC(c2ccccc2)(C3)C4=O)cc1` (stereo unspecified), the Potency was inconclusive [inhibitor, single point]. With `O=C1c2ccccc2C(=O)C12Cc1ccccc1N1CCN(c3ccccc3)CC12` (stereo unspecified) the Potency was inconclusive [inhibitor, single point]. With `CCOc1ccccc1-n1nnc(S(=O)(=O)c2ccc(C)cc2)c1N` the Potency was inconclusive [inhibitor, single point]. For `CCCOC1CCCN(C(=O)c2cc(COc3ccc(-n4cncn4)cc3)on2)C1` (stereo unspecified), the Potency was inconclusive [inhibitor, single point]. For `Cc1ccc(NC(=O)CSc2nc(-c3ccco3)cc(C(F)(F)F)n2)cc1C`, the Potency was active: 3.66 µM and active: 2.31 µM. With `O=C(c1ccc(CS(=O)(=O)c2ccc(Br)cc2)o1)N1CCCCCC1` the Potency was inconclusive [inhibitor, single point]. With `COc1cc(NC(=O)c2ccc(C)cc2)c(OC)cc1NC(=O)CN1CCOCC1` the Potency was inconclusive [inhibitor, single point]. For `COc1cc2c(Cc3c4c5c(cc(OC)c(OC)c5c5c(OC)c(OC)ccc35)CCN4C)c3c4c(cc(OC)c(OC)c4c2cc1OC)CCN3C`, the “activity change, negative = growth inhibition” value was inactive: -11.6%. With `O=C(Nc1ccc2[nH]c(=O)[nH]c2c1)c1ccc([N+](=O)[O-])o1` the Potency was inconclusive [inhibitor, partial curve]. For `COc1ccc(-c2nn(-c3ccccc3)cc2/C=C/C(=O)OCC(=O)Nc2cccc(C#N)c2)cc1`, the Potency was inconclusive [inhibitor, single point]. For `Cc1cc(C)nc(SCc2nnc(SCC(=O)N3CCCc4ccccc43)o2)n1`, the Potency was inconclusive [inhibitor, partial curve, poor fit]. In the case of `O=C(COCc1cc(-c2ccco2)on1)Nc1cccc(Cl)c1Cl`, the activity change, negative = growth inhibition was inconclusive: -31.2% [inhibitor]. For `CCN(CC)C(=O)c1cccc(-c2csc(C(C)(O)c3cccc(OC)c3)n2)c1` (stereo unspecified), the Potency was active: 18.4 µM. For `CCOc1ccc2nc(NC(=O)Cn3c(C)csc3=O)sc2c1`, the “activity change, negative = growth inhibition” value was inactive: -20.9%. For `CC(=O)NCCNc1ncncc1-c1ccc(N(C)C)cc1`, the Potency was inconclusive [inhibitor, single point]. With `COc1ccc(-c2cc(C(=O)N(C)Cc3ccc(F)cc3)c3ccccc3n2)cc1OC` the Potency was active: 23.1 µM. With `CC(C)Nc1nc(-c2ccccc2CO)c2sccc2n1` the Potency was inconclusive [inhibitor, single point]. In the case of `COc1cc(C(O)c2nc(-c3ccncc3)cs2)ccc1F` (stereo unspecified), the Potency was inconclusive [inhibitor, partial curve, poor fit]. In the case of `CCCNC(=O)C1(CC2CC(c3ccccc3)=NO2)CCN(C(=O)Cc2ccc(F)cc2)CC1` (stereo unspecified), the Potency was inconclusive [inhibitor, single point]. With `COc1ccc(S(=O)(=O)N2CCC(C(=O)NCCC(=O)NCc3cccc(OC)c3)CC2)cc1` the “activity change, negative = growth inhibition” value was inactive: 7.57%. For `Cc1ccc(-n2nc3c(=O)n(C(C)C(=O)NCc4ccc(Cl)cc4)nc(C)c3c2C)cc1` (stereo unspecified), the Potency was inconclusive [inhibitor, single point]. For `CCOc1ccc(NC(=O)CN2CCN(c3ccc(Cl)cc3)CC2)cc1`, the Potency was inconclusive [inhibitor, single point]. In the case of `COc1ccc(OC)c(CCNC(=O)c2cc3c(=O)n(C)c4ccccc4c3n2C)c1`, the Potency was inconclusive [inhibitor, single point]. In the case of `O=C(CNC(=O)c1nc[nH]c1C(=O)N1CCN(c2ccccc2)CC1)OCc1ccccc1`, the “activity change, negative = growth inhibition” value was inactive: -0.388%. With `COc1ccc(C(O)c2nc(/C=C/c3ccc(C(F)(F)F)cc3)cs2)cc1` (stereo unspecified) the Potency was inconclusive [inhibitor, single point]. In the case of `CSCCC(NC(=O)c1ccco1)C(=O)NC1CCC(C)CC1` (stereo unspecified), the “activity change, negative = growth inhibition” value was inactive: 1.54%. In the case of `O=C1C2CSCN2C(=O)CN1CCCN1CCN(C(c2ccccc2)c2ccccc2)CC1` (stereo unspecified), the Potency was inconclusive [inhibitor, single point]. With `c1ccc2c(Nc3ccc4c(c3)OCCO4)c3c(nc2c1)CCC3` the Potency was active: 23.1 µM. With `O=C(c1cc(F)cc(F)c1)N1CCC(c2nc(-c3ccc(S(=O)(=O)N4CCCC4)cc3)no2)CC1` the Potency was inconclusive [inhibitor, single point]. For `CN1c2ccsc2/C(=N/NC(=O)c2c(F)cccc2F)CS1(=O)=O`, the “activity change, negative = growth inhibition” value was inactive: -14.2%. For `Cc1cccc(-c2cnc3cccnn23)c1`, the Potency was inconclusive [inhibitor, partial curve]. In the case of `COc1cccc2cc(C(=O)N(C)C3CCN(C)CC3)c(=O)oc12`, the “activity change, negative = growth inhibition” value was inactive: 3.73%. With `O=C(c1ccc(Cl)cc1)c1ccc(OCC(O)CN2CCCCC2)cc1` (stereo unspecified) the Potency was inconclusive [inhibitor, partial curve]. With `COc1cc(C(=O)NC2CCN(C)CC2)ccc1Nc1ncc2c(n1)N(Cc1ccccc1)CCC(=O)N2C` the Potency was active: 3.66 µM. In the case of `CS(=O)(=O)c1ccc(CNC(=O)[C@]2(C(F)(F)F)C[C@H](CCc3ccccc3)CCCO2)cc1`, the Potency was inconclusive [inhibitor, single point]. In the case of `CCN(C(=O)CN1C(=O)NC2(CCC(C)CC2)C1=O)C1CCCCC1` (stereo unspecified), the “activity change, negative = growth inhibition” value was inactive: 4.21%. In the case of `C=CC[C@@H](CC(=O)N[C@H](CO)Cc1ccccc1)C(=O)N[C@H](C)COC(=O)[C@@H](CC=C)CC(=O)OC(C)(C)C`, the Potency was inconclusive [inhibitor, partial curve]. In the case of `N#CCCN(C(=O)COC(=O)C1CCN(S(=O)(=O)c2ccccc2C(F)(F)F)CC1)c1ccccc1`, the “activity change, negative = growth inhibition” value was inactive: 5.86%. For `Cc1cc(=O)n2nc(N(C)CC(=O)NCc3ccc(Cl)cc3)sc2n1`, the Potency was inconclusive [inhibitor, single point]. For `Cc1cc(C(=O)Cn2nnc3ccccc3c2=O)c(C)n1Cc1cccs1`, the Potency was active: 29.1 µM. For `CCc1cccc(NC(=O)CCN2C(=O)c3ccccc3Sc3ncccc32)c1`, the Potency was inconclusive [inhibitor, single point]. In the case of `Clc1ccc(CSc2cc3c(nn2)-c2ccccc2CC3)cc1Cl`, the Potency was inconclusive [inhibitor, single point]. In the case of `CC1CN(C2CCCCC2)c2nc3c(c(=O)n(C)c(=O)n3C)n2C1` (stereo unspecified), the “activity change, negative = growth inhibition” value was inactive: -29.8%. In the case of `O=[N+]([O-])c1ccc(C=Nc2ccc(Cl)cc2Cl)s1`, the Potency was active: 6.51 µM. With `CN(C(=O)c1cccc(NC(=O)Cc2ccc(NC(=O)C3CCCN(C(=O)C4CCCC4)C3)cc2)c1)C1CCCCC1` (stereo unspecified) the Potency was inconclusive [inhibitor, single point]. With `NC(=O)COC(=O)c1cccc(S(=O)(=O)N2CCCc3ccccc32)c1` the Potency was inconclusive [inhibitor, partial curve]. For `Cc1cc(CSC(=N)N)c(CSC(=N)N)cc1C`, the Potency was inconclusive [inhibitor, partial curve]. In the case of `O=C(CC(CC(=O)c1ccccc1)c1ccncc1)c1ccccc1`, the Potency was inconclusive [inhibitor, single point].
